# Measured values taken from the supplement of paper PMC8728848.
# The other results are listed elsewhere or left out.
# B1: NPA (Narcissus pseudonarcissus), C0HM45 (protein)
# chain: DNILYSGETLSPGEFLNNGRYVFIMQEDCNLVLYDVDKPIWATNTGGLDRRCHLSMQSDGNLVVYSPRNNPIWASNTGGENGNYVCVLQKDRNVVIYGTARWATGTNIH
# What was measured:
# Assay in all cases: glycan array binding signal (z-score within array); higher = stronger binding
# Conditions in all cases: glycan notation: IUPAC condensed, linker removed
# [1] = target: Fuc(a1-2)[GalNAc(a1-3)]Gal(b1-3)GlcNAc(b1-3)GalNAc
# Procedure, shortened: (§1)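 Arrays were curated from the Consortium for Functional Glycomics database, 3228 in total, and kept only where the protein sequence was available. Binding is expressed as a within-array Z-score. This score was averaged across arrays of the same protein sequence at different concentrations or buffers and across linkers, and negative values can be read as non-binding.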
# [2] = target: Fuc(a1-2)[GalNAc(a1-3)]Gal(b1-3)GlcNAc(b1-6)GalNAc
# Procedure, shortened: as §1
# [3] = target: Fuc(a1-2)[GalNAc(a1-3)]Gal(b1-4)Glc
# Procedure, shortened: as §1
# [4] = target: Fuc(a1-2)[GalNAc(a1-3)]Gal(b1-4)GlcNAc
# Procedure, shortened: as §1
# [5] = target: Fuc(a1-2)[GalNAc(a1-3)]Gal(b1-4)GlcNAc(b1-2)Man
# Procedure, shortened: as §1
# [6] = target: Fuc(a1-2)[GalNAc(a1-3)]Gal(b1-4)GlcNAc(b1-2)Man(a1-3)[Fuc(a1-2)[GalNAc(a1-3)]Gal(b1-4)GlcNAc(b1-2)Man(a1-6)]Man(b1-4)GlcNAc(b1-4)GlcNAc
# Procedure, shortened: as §1
# [7] = target: Fuc(a1-2)[GalNAc(a1-3)]Gal(b1-4)GlcNAc(b1-2)Man(a1-3)[Fuc(a1-2)[GalNAc(a1-3)]Gal(b1-4)GlcNAc(b1-2)Man(a1-6)]Man(b1-4)GlcNAc(b1-4)[Fuc(a1-6)]GlcNAc
# Procedure, shortened: as §1
# [8] = target: Fuc(a1-2)[GalNAc(a1-3)]Gal(b1-4)GlcNAc(b1-3)Gal(b1-4)GlcNAc
# Procedure, shortened: as §1
# [9] = target: Fuc(a1-2)[GalNAc(a1-3)]Gal(b1-4)GlcNAc(b1-3)Gal(b1-4)GlcNAc(b1-3)Gal(b1-4)GlcNAc
# Procedure, shortened: as §1
# [10] = target: Fuc(a1-2)[GalNAc(a1-3)]Gal(b1-4)GlcNAc(b1-3)GalNAc
# Procedure, shortened: as §1
# [11] = target: Fuc(a1-2)[GalNAc(a1-3)]Gal(b1-4)GlcNAc(b1-3)[Fuc(a1-2)[GalNAc(a1-3)]Gal(b1-4)GlcNAc(b1-6)]GalNAc
# Procedure, shortened: as §1
# [12] = target: Fuc(a1-2)[GalNAc(a1-3)]Gal(b1-4)GlcNAc(b1-6)GalNAc
# Procedure, shortened: as §1
# [13] = target: Fuc(a1-2)[GalNAc(a1-3)]Gal(b1-4)[Fuc(a1-3)]GlcNAc
# Procedure, shortened: as §1
# [14] = target: Fuc(a1-2)[GalNAc(a1-3)]Gal(b1-4)[Fuc(a1-3)]GlcNAc(b1-3)GalNAc
# Procedure, shortened: as §1
# [15] = target: Fuc(a1-2)[GalNAc(a1-4)]Gal(b1-4)GlcNAc
# Procedure, shortened: as §1
# [16] = target: Fuc(a1-2)[GalNAc(b1-3)]Gal
# Procedure, shortened: as §1
# Fuc(a1-3)GlcNAc = target: Fuc(a1-3)GlcNAc
# Procedure, shortened: as §1
# [17] = target: Fuc(a1-3)[Gal(b1-4)]Glc6S
# Procedure, shortened: as §1
# [18] = target: Fuc(a1-3)[Gal(b1-4)]GlcNAc
# Procedure, shortened: as §1
# [19] = target: Fuc(a1-3)[Gal(b1-4)]GlcNAc(b1-2)Man
# Procedure, shortened: as §1
# [20] = target: Fuc(a1-3)[Gal(b1-4)]GlcNAc(b1-2)Man(a1-3)[Fuc(a1-3)[Gal(b1-4)]GlcNAc(b1-2)Man(a1-6)]Man(b1-4)GlcNAc(b1-4)GlcNAc
# Procedure, shortened: as §1
# [21] = target: Fuc(a1-3)[Gal(b1-4)]GlcNAc(b1-2)Man(a1-3)[Fuc(a1-3)[Gal(b1-4)]GlcNAc(b1-2)Man(a1-6)]Man(b1-4)GlcNAc(b1-4)[Fuc(a1-6)]GlcNAc
# Procedure, shortened: as §1
# [22] = target: Fuc(a1-3)[Gal(b1-4)]GlcNAc(b1-3)Gal(b1-3)[Fuc(a1-4)]GlcNAc
# Procedure, shortened: as §1
# [23] = target: Fuc(a1-3)[Gal(b1-4)]GlcNAc(b1-3)Gal(b1-4)[Fuc(a1-3)]GlcNAc
# Procedure, shortened: as §1
# [24] = target: Fuc(a1-3)[Gal(b1-4)]GlcNAc(b1-3)Gal(b1-4)[Fuc(a1-3)]GlcNAc(b1-3)Gal(b1-4)[Fuc(a1-3)]GlcNAc
# Procedure, shortened: as §1
# [25] = target: Fuc(a1-3)[Gal(b1-4)]GlcNAc(b1-3)GalNAc
# Procedure, shortened: as §1
# [26] = target: Fuc(a1-3)[Gal(b1-4)]GlcNAc(b1-4)Gal(b1-4)[Fuc(a1-3)]GlcNAc
# Procedure, shortened: as §1
# [27] = target: Fuc(a1-3)[Gal(b1-4)]GlcNAc(b1-4)Gal(b1-4)[Fuc(a1-3)]GlcNAc(b1-4)Gal(b1-4)[Fuc(a1-3)]GlcNAc
# Procedure, shortened: as §1
# [28] = target: Fuc(a1-3)[Gal(b1-4)]GlcNAc(b1-6)GalNAc
# Procedure, shortened: as §1
# [29] = target: Fuc(a1-3)[Gal(b1-4)]GlcNAc(b1-6)[Gal(b1-3)GlcNAc(b1-3)]Gal(b1-4)Glc
# Procedure, shortened: as §1
# [30] = target: Fuc(a1-3)[Gal(b1-4)]GlcNAc6S
# Procedure, shortened: as §1
# [31] = target: Fuc(a1-3)[Gal3S(b1-4)]Glc
# Procedure, shortened: as §1
# [32] = target: Fuc(a1-3)[Gal3S(b1-4)]GlcNAc
# Procedure, shortened: as §1
# [33] = target: Fuc(a1-3)[Gal3S(b1-4)]GlcNAc6S
# Procedure, shortened: as §1
# [34] = target: Fuc(a1-3)[GalNAc(b1-4)]GlcNAc
# Procedure, shortened: as §1
# [35] = target: Fuc(a1-3)[GalNAc(b1-4)]GlcNAc6S
# Procedure, shortened: as §1
# Fuc(a1-4)GlcNAc = target: Fuc(a1-4)GlcNAc
# Procedure, shortened: as §1
# Fuc(b1-3)GlcNAc = target: Fuc(b1-3)GlcNAc
# Procedure, shortened: as §1
# Gal(a1-2)Gal = target: Gal(a1-2)Gal
# Procedure, shortened: as §1
# Gal(a1-3)Gal = target: Gal(a1-3)Gal
# Procedure, shortened: as §1
# Gal(a1-3)Gal(b1-3)GlcNAc = target: Gal(a1-3)Gal(b1-3)GlcNAc
# Procedure, shortened: as §1
# [36] = target: Gal(a1-3)Gal(b1-3)GlcNAc(b1-2)Man
# Procedure, shortened: as §1
# [37] = target: Gal(a1-3)Gal(b1-3)GlcNAc(b1-2)Man(a1-3)[Gal(a1-3)Gal(b1-3)GlcNAc(b1-2)Man(a1-6)]Man(b1-4)GlcNAc(b1-4)GlcNAc
# Procedure, shortened: as §1
# [38] = target: Gal(a1-3)Gal(b1-3)GlcNAc(b1-3)GalNAc
# Procedure, shortened: as §1
# [39] = target: Gal(a1-3)Gal(b1-3)GlcNAc(b1-6)GalNAc
# Procedure, shortened: as §1
binder,measurement,setting,value
B1,glycan array binding signal (z-score),[1],-0.131
same,glycan array binding signal (z-score),[2],-0.147
same,glycan array binding signal (z-score),[3],-0.15
same,glycan array binding signal (z-score),[4],-0.151
same,glycan array binding signal (z-score),[5],-0.147
same,glycan array binding signal (z-score),[6],-0.093
same,glycan array binding signal (z-score),[7],0.365
same,glycan array binding signal (z-score),[8],-0.148
same,glycan array binding signal (z-score),[9],-0.075
same,glycan array binding signal (z-score),[10],-0.153
same,glycan array binding signal (z-score),[11],-0.143
same,glycan array binding signal (z-score),[12],-0.15
same,glycan array binding signal (z-score),[13],-0.135
same,glycan array binding signal (z-score),[14],-0.085
same,glycan array binding signal (z-score),[15],-0.146
same,glycan array binding signal (z-score),[16],-0.153
same,glycan array binding signal (z-score),Fuc(a1-3)GlcNAc,-0.154
same,glycan array binding signal (z-score),[17],-0.127
same,glycan array binding signal (z-score),[18],-0.136
same,glycan array binding signal (z-score),[19],-0.131
same,glycan array binding signal (z-score),[20],-0.132
same,glycan array binding signal (z-score),[21],-0.126
same,glycan array binding signal (z-score),[22],-0.122
same,glycan array binding signal (z-score),[23],-0.125
same,glycan array binding signal (z-score),[24],-0.147
same,glycan array binding signal (z-score),[25],-0.139
same,glycan array binding signal (z-score),[26],-0.161
same,glycan array binding signal (z-score),[27],-0.172
same,glycan array binding signal (z-score),[28],-0.098
same,glycan array binding signal (z-score),[29],-0.139
same,glycan array binding signal (z-score),[30],-0.129
same,glycan array binding signal (z-score),[31],-0.131
same,glycan array binding signal (z-score),[32],-0.164
same,glycan array binding signal (z-score),[33],-0.136
same,glycan array binding signal (z-score),[34],-0.148
same,glycan array binding signal (z-score),[35],-0.152
same,glycan array binding signal (z-score),Fuc(a1-4)GlcNAc,-0.156
same,glycan array binding signal (z-score),Fuc(b1-3)GlcNAc,-0.154
same,glycan array binding signal (z-score),Gal(a1-2)Gal,-0.155
same,glycan array binding signal (z-score),Gal(a1-3)Gal,-0.157
same,glycan array binding signal (z-score),Gal(a1-3)Gal(b1-3)GlcNAc,-0.133
same,glycan array binding signal (z-score),[36],-0.146
same,glycan array binding signal (z-score),[37],-0.095
same,glycan array binding signal (z-score),[38],-0.146
same,glycan array binding signal (z-score),[39],-0.144
